Source: publication PMC4336329 (PLoS ONE, 2015)
Screen size: about 310,000 compounds; about 14,000 (4.5%) showed an effect of 50% or more. Effects have a minus sign here. The list shows a part of the results.

Each compound was assayed against human ether-à-go-go-related gene (hERG) potassium channel (human, UniProt Q12809) (assay: primary screen, population patch clamp on CHO cells stably expressing hERG).
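Note: peak tail current of the secondary pulse compared with the same well before compound.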

Sequence of human ether-à-go-go-related gene (hERG) potassium channel (Q12809 whole entry, looked up): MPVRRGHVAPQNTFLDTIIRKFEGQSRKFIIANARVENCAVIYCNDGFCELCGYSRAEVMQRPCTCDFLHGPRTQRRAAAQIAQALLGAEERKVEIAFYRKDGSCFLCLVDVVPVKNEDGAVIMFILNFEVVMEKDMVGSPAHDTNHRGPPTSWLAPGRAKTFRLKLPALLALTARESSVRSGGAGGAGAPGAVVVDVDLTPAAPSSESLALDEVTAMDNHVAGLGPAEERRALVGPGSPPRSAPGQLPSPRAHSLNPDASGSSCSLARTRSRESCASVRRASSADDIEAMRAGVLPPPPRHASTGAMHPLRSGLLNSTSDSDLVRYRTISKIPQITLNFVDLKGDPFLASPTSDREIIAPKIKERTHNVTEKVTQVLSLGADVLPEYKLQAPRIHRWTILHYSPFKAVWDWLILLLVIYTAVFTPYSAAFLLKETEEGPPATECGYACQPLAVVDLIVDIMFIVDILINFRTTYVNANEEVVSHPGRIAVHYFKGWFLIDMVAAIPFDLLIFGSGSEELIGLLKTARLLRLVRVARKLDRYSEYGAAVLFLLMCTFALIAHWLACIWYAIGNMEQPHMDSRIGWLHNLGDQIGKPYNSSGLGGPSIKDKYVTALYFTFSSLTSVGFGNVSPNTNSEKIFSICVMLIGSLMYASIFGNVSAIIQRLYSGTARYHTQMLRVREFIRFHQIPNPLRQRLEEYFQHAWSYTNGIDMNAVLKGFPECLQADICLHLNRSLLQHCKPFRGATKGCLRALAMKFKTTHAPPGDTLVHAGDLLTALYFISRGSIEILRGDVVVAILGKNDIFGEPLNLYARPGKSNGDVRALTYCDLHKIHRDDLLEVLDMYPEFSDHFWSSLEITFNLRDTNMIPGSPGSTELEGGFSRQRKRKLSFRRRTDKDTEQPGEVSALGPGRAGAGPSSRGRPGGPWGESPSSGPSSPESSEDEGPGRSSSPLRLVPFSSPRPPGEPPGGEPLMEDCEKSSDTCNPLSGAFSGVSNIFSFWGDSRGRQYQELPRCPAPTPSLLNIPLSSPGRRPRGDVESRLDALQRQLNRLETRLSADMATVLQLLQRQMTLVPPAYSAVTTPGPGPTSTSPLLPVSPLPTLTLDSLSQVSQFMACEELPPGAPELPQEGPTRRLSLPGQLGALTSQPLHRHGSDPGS

SMILES	hERG current change (%, negative = inhibition) at 10uM
O=C(c1ccc(N2CCN(C(=O)c3cccc(F)c3)CC2)cc1)c1cccc(F)c1	-12.5%
O=C(CCC1CCCNC1)c1ccccc1 (stereo not shown)	15%
Cc1cc(SCC(=O)OCC(=O)NCC2CCCO2)c(C)cc1Br (stereo not shown)	55.5%
CCN(CC)S(=O)(=O)c1cccc(C(=O)NC(Cc2c[nH]c3ccccc23)c2nnc3n2CCCCC3)c1 (stereo not shown)	-7.83%
CC(C)NC(=O)CC(c1ccccc1)c1cc(Br)ccc1O (stereo not shown)	-7.86%
O=C(Oc1ccccc1C(=O)Nc1ccccc1)c1ccccc1Br	6.15%
COCCN(CCOC)c1nc(S(=O)(=O)c2ccc(C)cc2)c(Cl)s1	-27.5%
O=C(NCC(=O)N1CCCC1)c1ccc(Br)o1	22.1%
Cc1cc(C)c(OCC(=O)Nc2nc3ccccc3[nH]2)c(C)c1	10.7%
O=C(CN(c1cccc([N+](=O)[O-])c1)S(=O)(=O)c1ccccc1)NCc1cccnc1	-42.2%
O=C(CSc1ccccc1)Nc1ccc2c(c1)C(=O)NC2=O	-19.9%
O=[N+]([O-])c1ccc(Cl)cc1Sc1ccccn1	0.135%
Cc1cc(OC(C)C(=O)NCCCN2CCCC2=O)c2c(C)c(C)c(=O)oc2c1 (stereo not shown)	-11.4%
Cc1ccc(-c2[nH]ncc2/C=C(\C#N)C(=O)NC2CCCCC2)cc1	0.6%
Cc1ccc(SCCCn2cncn2)cc1	-2.39%
O=C(NCC(=O)N1CCCCC1)c1ccc2ccccc2c1	17.5%
Cc1oc2cc3oc(=O)c(CCC(=O)NCCCn4ccnc4)c(C)c3cc2c1C	-41.7%
O=C(CCN1C(=O)c2ccccc2C1=O)Nc1ccc(S(=O)(=O)NC2=NCCCCC2)cc1	-0.452%
O=C(Cc1ccccc1)NCC(=O)Nc1cccc(Cl)c1	15.6%
N#CC1(NC(=O)COC(=O)c2ccc(-c3ccc(O)cc3)cc2)CCCCC1	7.22%
O=C(CSc1ccccc1Cl)N1CCOCC1	4.34%
COc1ccc(S(=O)(=O)N2CCOC2CNC(=O)C(=O)NCc2ccccn2)cc1C (stereo not shown)	11.6%
COc1ccc(CNC(=O)C/C(C)=N/NC(=O)c2ccc(OC)cc2OC)cc1	-10.5%
O=C(NCCc1ccccc1)C1CCCN1C(=O)Nc1ccc(Cl)cc1 (stereo not shown)	-9.01%
O=CN1Cc2ccccc2-c2ccccc2C1	17.1%
